Data on four molecules can be found in patent publication US20250263469A1 (HOSPITAL FOR SICK CHILDREN, published 2025).

The target in assay [1] is SARS-CoV-2 Spike on pseudotyped virus (PsV) (SARS-CoV-2). The assay is described as follows: cell-based or functional assay.
Assay [2] has the same target. Briefly: cell-based or functional assay. The source holds these as a separate data set.

B1: MB 178 (other)
chain 1: EIVMTQSPATLSVSPGERATLSCKASQSVSGTYLAWYQQKPGQAPRLLIYGASTRATGIPARFSGSGSGTEFTLTISSLQSEDFAVYYCLQTHSYPPTFGQGTKVEIKRTVAAPSVFIFPPSDEQLKSGTASVVCLLNNFYPREAKVQWKVDNALQSGNSQESVTEQDSKDSTYSLSSTLTLSKADYEKHKVYACEVTHQGLSSPVTKSFNRGECGGGGSGGGGSGGGGSGGGGSGGGGSGGGGSGGGGSGGGGSGGGGSGGGGSGGGGSGGGGSGGGGSGGGGSQVQLVQSGAEVKKPGASVKVSCKASGYTFTDYHMHWVRQAPGQGLEWMGWINPNSGGTNYAQKFQGRVTMTRDTSTSTVYMELSSLRSEDTAVYYCARDISSWYEITKFDPWGQGTLVTVSSASTKGPSVFPLAPSSKSTSGGTAALGCLVKDYFPEPVTVSWNSGALTSGVHTFPAVLQSSGLYSLSSVVTVPSSSLGTQTYICNVNHKPSNTKVDKKVEPKSCGGGGSGGGGSGGGGSGGGGSGGGG[not shown - about 200 residues]
chain 2: [not shown - human IgG1 Fc]GGGGSGGGGSGGGGSGGGGSGGGGSGGGGSGGGGSGGGGSGGGGSGGGGSGGGGSGGGGSGGGGSGGGGS[not shown - human IgG1 Fc]GGGGSGGGGSGGGGSGGGGSGGGGSGGSSQIRQNYSTDVEAAVNSLVNLYLQASYTYLSLGFYFDRDDVALEGVSHFFRELAEEKREGYERLLKMQNQRGGRALFQDIKKPAEDEW
chain 3: EIVMTQSPATLSVSPGERATLSCKASQSVSGTYLAWYQQKPGQAPRLLIYGASTRATGIPARFSGSGSGTEFTLTISSLQSEDFAVYYCLQTHSYPPTFGQGTKVEIKRTVAAPSVFIFPPSDEQLKSGTASVVCLLNNFYPREAKVQWKVDNALQSGNSQESVTEQDSKDSTYSLSSTLTLSKADYEKHKVYACEVTHQGLSSPVTKSFNRGECGGGGSGGGGSGGGGSGGGGSGGGGSGGGGSGGGGSGGGGSGGGGSGGGGSGGGGSGGGGSGGGGSGGGGSQVQLVQSGAEVKKPGASVKVSCKASGYTFTDYHMHWVRQAPGQGLEWMGWINPNSGGTNYAQKFQGRVTMTRDTSTSTVYMELSSLRSEDTAVYYCARDISSWYEITKFDPWGQGTLVTVSSASTKGPSVFPLAPSSKSTSGGTAALGCLVKDYFPEPVTVSWNSGALTSGVHTFPAVLQSSGLYSLSSVVTVPSSSLGTQTYICNVNHKPSNTKVDKKVEPKSCGGGGSGGGGSGGGGSGGGGSGGGGSGKTPDAMKAAMALEKKLNQALLDLHALGSARTDPHLCDFLETHFLDEEVKLIKKMGDHLTNLHRLGGPEAGLGEYLFERLTLRHD
As to B1, in assay [1], the “IC50 SARS-CoV2 PsV, MB” value was found to be 1.7 µg/mL. In assay [2], the “Median IC50, SARS-CoV-2 PsV neutralization” value (from here on “Median IC50”) came out at 1.7 µg/mL.

B2: MB 128 (other)
chain 1: DIQMTQSPSSLSASVGDRVTITCRASQNISRYLNWYQQKPGKAPKLLIYDASNLETGVPSRFSGSGSGTDFTLTISSLQPEDFATYYCQQANGFPPTFGQGTKLEIKRTVAAPSVFIFPPSDEQLKSGTASVVCLLNNFYPREAKVQWKVDNALQSGNSQESVTEQDSKDSTYSLSSTLTLSKADYEKHKVYACEVTHQGLSSPVTKSFNRGECGGGGSGGGGSGGGGSGGGGSGGGGSGGGGSGGGGSGGGGSGGGGSGGGGSGGGGSGGGGSGGGGSGGGGSQVQLVQSGAEVKKPGASVKVSCKASGYTFTHYYMHWVRQAPGQGLEWMGIINPSSSSASYSQKFQGRVTMTRDTSTSTVYMELSSLRSEDTAVYYCARDGRYGSGSYPFDYWGQGTLVTVSSASTKGPSVFPLAPSSKSTSGGTAALGCLVKDYFPEPVTVSWNSGALTSGVHTFPAVLQSSGLYSLSSVVTVPSSSLGTQTYICNVNHKPSNTKVDKKVEPKSCGGGGSGGGGSGGGGSGGGGSGGGG[not shown - about 200 residues]
chain 2: [not shown - human IgG1 Fc]GGGGSGGGGSGGGGSGGGGSGGGGSGGGGSGGGGSGGGGSGGGGSGGGGSGGGGSGGGGSGGGGSGGGGS[not shown - human IgG1 Fc]GGGGSGGGGSGGGGSGGGGSGGGGSGGSSQIRQNYSTDVEAAVNSLVNLYLQASYTYLSLGFYFDRDDVALEGVSHFFRELAEEKREGYERLLKMQNQRGGRALFQDIKKPAEDEW
chain 3: DIQMTQSPSSLSASVGDRVTITCRASQNISRYLNWYQQKPGKAPKLLIYDASNLETGVPSRFSGSGSGTDFTLTISSLQPEDFATYYCQQANGFPPTFGQGTKLEIKRTVAAPSVFIFPPSDEQLKSGTASVVCLLNNFYPREAKVQWKVDNALQSGNSQESVTEQDSKDSTYSLSSTLTLSKADYEKHKVYACEVTHQGLSSPVTKSFNRGECGGGGSGGGGSGGGGSGGGGSGGGGSGGGGSGGGGSGGGGSGGGGSGGGGSGGGGSGGGGSGGGGSGGGGSQVQLVQSGAEVKKPGASVKVSCKASGYTFTHYYMHWVRQAPGQGLEWMGIINPSSSSASYSQKFQGRVTMTRDTSTSTVYMELSSLRSEDTAVYYCARDGRYGSGSYPFDYWGQGTLVTVSSASTKGPSVFPLAPSSKSTSGGTAALGCLVKDYFPEPVTVSWNSGALTSGVHTFPAVLQSSGLYSLSSVVTVPSSSLGTQTYICNVNHKPSNTKVDKKVEPKSCGGGGSGGGGSGGGGSGGGGSGGGGSGKTPDAMKAAMALEKKLNQALLDLHALGSARTDPHLCDFLETHFLDEEVKLIKKMGDHLTNLHRLGGPEAGLGEYLFERLTLRHD
For the molecule B2, the “IC50 SARS-CoV2 PsV, MB” value in assay [1] was 3.5 µg/mL. In assay [2], the “Median IC50” value came to 3.5 µg/mL.

B3: MB 80 (other)
chain 1: [not shown - about 200 residues]GGGGSGGGGSGGGGSGGGGSGGGGSGGGGSGGGGSGGGGSGGGGSGGGGSGGGGSGGGGSGGGGSGGGGSQVQLVQSGAEVKKPGSSVKVSCKASGGTFNRYAFSWVRQAPGQGLEWMGGIIPIFGTANYAQKFQGRVTITADESTSTAYMELSSLRSEDTAVYYCARSTRELPEVVDWYFDLWGRGTLVTVSSASTKGPSVFPLAPSSKSTSGGTAALGCLVKDYFPEPVTVSWNSGALTSGVHTFPAVLQSSGLYSLSSVVTVPSSSLGTQTYICNVNHKPSNTKVDKKVEPKSCGGGGSGGGGSGGGGSGGGGSGGGG[not shown - about 200 residues]
chain 2: [not shown - human IgG1 Fc]GGGGSGGGGSGGGGSGGGGSGGGGSGGGGSGGGGSGGGGSGGGGSGGGGSGGGGSGGGGSGGGGSGGGGS[not shown - human IgG1 Fc]GGGGSGGGGSGGGGSGGGGSGGGGSGGSSQIRQNYSTDVEAAVNSLVNLYLQASYTYLSLGFYFDRDDVALEGVSHFFRELAEEKREGYERLLKMQNQRGGRALFQDIKKPAEDEW
chain 3: [not shown - about 200 residues]GGGGSGGGGSGGGGSGGGGSGGGGSGGGGSGGGGSGGGGSGGGGSGGGGSGGGGSGGGGSGGGGSGGGGSQVQLVQSGAEVKKPGSSVKVSCKASGGTFNRYAFSWVRQAPGQGLEWMGGIIPIFGTANYAQKFQGRVTITADESTSTAYMELSSLRSEDTAVYYCARSTRELPEVVDWYFDLWGRGTLVTVSSASTKGPSVFPLAPSSKSTSGGTAALGCLVKDYFPEPVTVSWNSGALTSGVHTFPAVLQSSGLYSLSSVVTVPSSSLGTQTYICNVNHKPSNTKVDKKVEPKSCGGGGSGGGGSGGGGSGGGGSGGGGSGKTPDAMKAAMALEKKLNQALLDLHALGSARTDPHLCDFLETHFLDEEVKLIKKMGDHLTNLHRLGGPEAGLGEYLFERLTLRHD
For the molecule B3, the “IC50 SARS-CoV2 PsV, MB” value in assay [1] is 0.0013 µg/mL. Moreover, the “Median IC50” value in assay [2] turned out to be 0.0013 µg/mL.

B4: MB 108 (other)
chain 1: DIQMTQSPSSLSASVGDRVTITCRASQVITNNLAWYQQKPGKAPKLLIYDASTLETGVPSRFSGSGSGTDFTLTISSLQPEDFATYYCQQSYTFPYTFGQGTKVEIKRTVAAPSVFIFPPSDEQLKSGTASVVCLLNNFYPREAKVQWKVDNALQSGNSQESVTEQDSKDSTYSLSSTLTLSKADYEKHKVYACEVTHQGLSSPVTKSFNRGECGGGGSGGGGSGGGGSGGGGSGGGGSGGGGSGGGGSGGGGSGGGGSGGGGSGGGGSGGGGSGGGGSGGGGSQVQLVQSGAEVKKPGASVKVSCKASGYIFSRYAIHWVRQAPGQGLEWMGWMNPISGNTDYAPNFQGRVTMTRDTSTSTVYMELSSLRSEDTAVYYCAKDGSQLAYLVEYFQHWGQGTLVTVSSASTKGPSVFPLAPSSKSTSGGTAALGCLVKDYFPEPVTVSWNSGALTSGVHTFPAVLQSSGLYSLSSVVTVPSSSLGTQTYICNVNHKPSNTKVDKKVEPKSCGGGGSGGGGSGGGGSGGGGSGGGG[not shown - about 200 residues]
chain 2: [not shown - human IgG1 Fc]GGGGSGGGGSGGGGSGGGGSGGGGSGGGGSGGGGSGGGGSGGGGSGGGGSGGGGSGGGGSGGGGSGGGGS[not shown - human IgG1 Fc]GGGGSGGGGSGGGGSGGGGSGGGGSGGSSQIRQNYSTDVEAAVNSLVNLYLQASYTYLSLGFYFDRDDVALEGVSHFFRELAEEKREGYERLLKMQNQRGGRALFQDIKKPAEDEW
chain 3: DIQMTQSPSSLSASVGDRVTITCRASQVITNNLAWYQQKPGKAPKLLIYDASTLETGVPSRFSGSGSGTDFTLTISSLQPEDFATYYCQQSYTFPYTFGQGTKVEIKRTVAAPSVFIFPPSDEQLKSGTASVVCLLNNFYPREAKVQWKVDNALQSGNSQESVTEQDSKDSTYSLSSTLTLSKADYEKHKVYACEVTHQGLSSPVTKSFNRGECGGGGSGGGGSGGGGSGGGGSGGGGSGGGGSGGGGSGGGGSGGGGSGGGGSGGGGSGGGGSGGGGSGGGGSQVQLVQSGAEVKKPGASVKVSCKASGYIFSRYAIHWVRQAPGQGLEWMGWMNPISGNTDYAPNFQGRVTMTRDTSTSTVYMELSSLRSEDTAVYYCAKDGSQLAYLVEYFQHWGQGTLVTVSSASTKGPSVFPLAPSSKSTSGGTAALGCLVKDYFPEPVTVSWNSGALTSGVHTFPAVLQSSGLYSLSSVVTVPSSSLGTQTYICNVNHKPSNTKVDKKVEPKSCGGGGSGGGGSGGGGSGGGGSGGGGSGKTPDAMKAAMALEKKLNQALLDLHALGSARTDPHLCDFLETHFLDEEVKLIKKMGDHLTNLHRLGGPEAGLGEYLFERLTLRHD
As for B4, the “IC50 SARS-CoV2 PsV, MB” value in assay [1] amounted to 0.37 µg/mL. Moreover, in assay [2], the “Median IC50” value amounted to 0.37 µg/mL.
